According to a compilation of properties of binary mixtures (doi:10.1016/j.molliq.2019.111925):
The densities may have been worked out from excess volumes.

Test: xn = mol fraction of the nth substance listed
Conditions: 100 kPa

Work on O + CC(=O)[O-].CC[n+]1ccn(C)c1 yielded a mass density (333.15 K, x2 = 0) of 983.2 kg/m3 and a mass density (343.15 K, x2 = 0) of 977.8 kg/m3.
Work on CC(=O)[O-].CC[n+]1ccn(C)c1 + O yielded a mass density (293.15 K, x1 = 0.105) of 1078.5 kg/m3, a mass density (293.15 K, x1 = 0.4445) of 1108.5 kg/m3 and a mass density (293.15 K, x1 = 0.5602) of 1107.6 kg/m3. It also gave a mass density (293.15 K, x1 = 0.7375) of 1104.1 kg/m3, a mass density (293.15 K, x2 = 0.0174) of 1101.3 kg/m3 and a mass density (298.15 K, x1 = 0.4445) of 1105.4 kg/m3. For the same molecule, the mass density (298.15 K, x1 = 0.5602) was 1104.5 kg/m3, the mass density (298.15 K, x1 = 0.7375) was 1100.8 kg/m3 and the mass density (298.15 K, x1 = 0.8521) was 1099.4 kg/m3. For the same molecule, the mass density (298.15 K, x1 = 1) was 1098.1 kg/m3, the mass density (298.15 K, x2 = 0.0174) was 1098.2 kg/m3 and the mass density (303.15 K, x1 = 0.105) was 1072.1 kg/m3. For the same molecule, the mass density (303.15 K, x1 = 0.1988) was 1095.2 kg/m3, the mass density (303.15 K, x1 = 0.4445) was 1102.4 kg/m3 and the mass density (303.15 K, x1 = 0.5602) was 1101.5 kg/m3. The mass density (303.15 K, x1 = 0.7375) was 1098 kg/m3, the mass density (303.15 K, x1 = 1) was 1094.9 kg/m3 and the mass density (303.15 K, x2 = 0.0174) was 1095.1 kg/m3. For the same molecule, the mass density (313.15 K, x1 = 0.1988) was 1088.5 kg/m3, the mass density (313.15 K, x1 = 0.4445) was 1096.2 kg/m3 and the mass density (313.15 K, x1 = 0.5602) was 1095.4 kg/m3. It also gave a mass density (313.15 K, x1 = 0.7375) of 1091.9 kg/m3, a mass density (313.15 K, x1 = 1) of 1088.8 kg/m3 and a mass density (313.15 K, x2 = 0.0174) of 1088.9 kg/m3. It also gave a mass density (323.15 K, x1 = 0.105) of 1059 kg/m3, a mass density (323.15 K, x1 = 0.4445) of 1090.1 kg/m3 and a mass density (323.15 K, x1 = 0.5602) of 1089.3 kg/m3. For the same molecule, the mass density (323.15 K, x1 = 0.7375) was 1085.9 kg/m3, the mass density (323.15 K, x1 = 1) was 1082.7 kg/m3 and the mass density (323.15 K, x2 = 0.0174) was 1082.8 kg/m3. For the same molecule, the mass density (333.15 K, x1 = 0.105) was 1052.2 kg/m3, the mass density (333.15 K, x1 = 0.1988) was 1074.9 kg/m3 and the mass density (333.15 K, x1 = 0.5602) was 1083.3 kg/m3. For the same molecule, the mass density (333.15 K, x1 = 0.7375) was 1079.9 kg/m3, the mass density (343.15 K, x1 = 0.105) was 1045.2 kg/m3 and the mass density (343.15 K, x1 = 0.4445) was 1077.7 kg/m3. The mass density (343.15 K, x1 = 0.5602) was 1077.2 kg/m3, the mass density (343.15 K, x1 = 0.7375) was 1073.9 kg/m3 and the mass density (343.15 K, x2 = 0.0174) was 1070.8 kg/m3.
